These results are taken from ChEMBL document CHEMBL4888484, “Replenishing the malaria drug discovery pipeline: Screening and hit evaluation of the MMV Hit Generation Library 1 (HGL1) against asexual blood stage Plasmodium falciparum ,using a nano luciferase reporter read-out” (2022).

Structures are written as SMILES. The whole screen tested about 150,000 compounds, of which about 540 (0.36%) showed an effect of 50% or more. The list shows a part of the results.

The assay has as its system Plasmodium falciparum. Put plainly: Primary screen in NF54 nanoGlo assay, in single point, at 2uM, 72h; a lower Z score goes with more inhibition. The format is functional, Erythrocyte. To be noted: timepoint 72 hour.
As a reminder, the % Inhibition is the relative decrease from the control value, in per cent. Take `O=c1ccccn1CC1CCC(F)(F)CC1`: the “% Inhibition” value is -4% and the Z score was 0.7.
On to `Cn1nnc2cc(NCC34CC3CN(C(=O)OC(C)(C)C)C4)ccc21` (stereo unspecified), for which the “% Inhibition” value was -10% and the Z score is given as 1.28.
For `C=CC[C@]1(CO)CCCN(CCOCC)C1`, the “% Inhibition” value is -16% and the Z score is on record as 2.
Regarding `CC(=O)Nc1ccc(S(=O)(=O)NC[C@](C)(O)c2cc3ccccc3o2)cc1`, the “% Inhibition” value is 0% and the Z score is reported as -0.08.
Turning to `O=C(Cc1ccccc1F)Nc1cnn(CC2CC2)c1`, the “% Inhibition” value was -1% and the Z score is on record as 0.12.
As for `CCn1cnnc1[C@@H]1CCCCN1C(=O)CCc1c[nH]c2ccccc12`, the “% Inhibition” value is listed as -12% and the Z score worked out at 1.4.
On the same counts, the results for `Cc1cc(N2CCCOCC2)n2nccc2n1` are 8% and -0.92.
As for `C=C1CCC(NC(=O)c2cc(C)n(C)n2)CC1`, the “% Inhibition” value is listed as -4% and the Z score turned out to be 0.79.
For `CCCCc1nc(Cn2nnnc2C)no1`, the “% Inhibition” value is -4% and the Z score is reported as 0.6.
`N#Cc1cnn(CC2CCC(F)(F)CC2)c1`: the “% Inhibition” value was 0% and the Z score is -0.06.
Regarding `O=C(NC[C@H]1CCCO1)Nc1ccccc1-c1cc2ccccc2[nH]1`, the “% Inhibition” value is on record as 27% and the Z score is recorded as -3.06.
In the case of `CCn1cc(CNC(=O)c2ccc3nc(-c4ccc(F)cc4)cn3c2)cn1`, the “% Inhibition” value is -10% and the Z score worked out at 1.85.
Taken in the same sequence, the figures for `CCc1cc(C(=O)N2C[C@H](C(=O)N3CCOCC3)[C@@H](C)C2)n(C)n1` were -8% and 1.08.
As to `Clc1cnc2nc(N3CCO[C@H](c4nccs4)C3)ccc2c1`, the “% Inhibition” value was -12% and the Z score turned out to be 1.87.
Turning to `C[C@@H](c1ccccn1)N(C)c1nc(N)nc2nc[nH]c12`, the “% Inhibition” value turned out to be 5% and the Z score is -0.59.
For the molecule `COc1ccc(C2CN(Cc3ccccn3)CC2CN(Cc2ccc(F)cc2)C(C)=O)cc1` (stereo unspecified), the “% Inhibition” value is 15% and the Z score was -1.72.
On to `O=C(Cc1cc(F)ccc1Br)N[C@H]1CC12CCNCC2`, for which the “% Inhibition” value is -5% and the Z score worked out at 0.87.
Taken in the same sequence, the figures for `Cc1nc(C)c(C(=O)N(C)Cc2csc(-c3cccs3)n2)s1` were -12% and 2.25.
Taken in the same sequence, the figures for `C[C@@H](CCNc1nc(C(N)=O)cs1)NC(=O)OC(C)(C)C` were -3% and 0.51.
Regarding `O=C(NC[C@H]1CCCO1)c1nc(-c2ccnc(N3CCCC3)c2)no1`, the “% Inhibition” value was -10% and the Z score is given as 1.78.
On to `CC1(C)CN(C(=O)COc2ccccc2-c2ccccc2)CCS1(=O)=O`, for which the “% Inhibition” value is 3% and the Z score was -0.41.
On the same counts, the results for `C[C@H](NCC1OCCO1)c1cnn(C)c1` are -15% and 1.69.
For `C#CCCC1(CCC(=O)Nc2ccn(CC(N)=O)n2)N=N1`, the “% Inhibition” value is 0% and the Z score was -0.01.
On the same counts, the results for `C[C@@H](CO)NC(=O)Nc1ccc(F)cn1` are -12% and 1.67.
Taken in the same sequence, the figures for `Cn1nnc2c(=O)n(CC(=O)NCc3ccc(F)cc3)cnc21` were -7% and 1.03.
As for `C[C@H]1C[C@@H](CO)CCN1Cc1cnc(C(C)(C)C)s1`, the “% Inhibition” value is -27% and the Z score was 3.19.
Turning to `COc1c(C)cc([C@H]2CCc3nc(C(=O)NCCN4CCCCC4)cn3C2)cc1C`, the “% Inhibition” value was -2% and the Z score is recorded as 0.25.
For `CN(C)CCNC(=O)c1ccc(OCc2nnc(C(=O)Nc3ccc(F)cc3F)s2)cc1`, the “% Inhibition” value is -7% and the Z score was found to be 0.64.
Turning to `Cc1c(CNC(=O)N[C@@H](C2CCCC2)C(F)(F)F)cnn1C`, the “% Inhibition” value was -14% and the Z score is recorded as 1.42.
Taken in the same sequence, the figures for `COc1cc(N2C[C@H]3CC[C@@H](C2)N(Cc2c(C)noc2C)C3=O)nc(N)n1` were -10% and 1.92.
Taken in the same sequence, the figures for `CCn1ccc(C(=O)N2CCC[C@@]3(C2)Nc2cccnc2N=C3NCc2ccccc2)n1` were 35% and -3.95.
On the same counts, the results for `COc1ccc(CCN(Cc2ccco2)C(=O)CN(C(C)C)S(=O)(=O)c2c(C)cc(C)cc2C)cc1OC` are -7% and 1.04.
For `Cc1c(C)[n+](O)c([C@H](CC(=O)O)c2cccc(O)c2)n1C`, the “% Inhibition” value is on record as -12% and the Z score was 1.51.
Turning to `C[C@@H](c1ccccn1)S(=O)(=O)C1CCCCC1`, the “% Inhibition” value was -6% and the Z score came to 1.12.
Consider `Cc1cc(C)c(C(N)=O)c(-c2ccc(C(=O)N3CCCC3)cc2)n1`, for which the “% Inhibition” value is given as -7% and the Z score is listed as 1.26.
For the molecule `Cn1cc([C@H]2CCCN(C(=O)Cc3ccc4c(c3)OCO4)C2)cn1`, the “% Inhibition” value was found to be 1% and the Z score was -0.14.
Regarding `CNC(=O)C1CCCC1NC(=O)NCc1nc(C(F)(F)F)cs1` (stereo unspecified), the “% Inhibition” value is on record as 1% and the Z score is reported as -0.2.
On the same counts, the results for `CCc1c(C)sc2ncnc(N[C@@H](C)c3cnn(C)c3)c12` are -2% and 0.47.
With `Cc1ccc(CNC(=O)Cc2nnc(-c3ccc4ncccc4c3)o2)cc1C`, the “% Inhibition” value was 9% and the Z score was -0.89.
`COc1cc(CCO)ccc1NC1CCN([C@H]2CCOC2)CC1`: the “% Inhibition” value was determined as 9% and the Z score is -1.34.
For `Cc1ccc(N(C)[C@H]2CCCN(C(=O)Nc3ccc(F)cc3CS(C)(=O)=O)C2)cc1`, the “% Inhibition” value is -8% and the Z score was 1.04.
`O=C(c1ccc2ccccc2n1)N1CCCCCCC1`: the “% Inhibition” value was found to be 5% and the Z score is -0.59.
On the same counts, the results for `O=C(CN1c2ccc(F)cc2-c2ccccc2S1(=O)=O)N1CCN(Cc2ccccc2)CC1` are 0% and -0.07.
